# From PubChem BioAssay AID1508624 (National Center for Advancing Translational Sciences (NCATS), 2021)
# Screen size: about 48,000 compounds; about 120 (0.25%) were called active. Inconclusive results (about 4%) are left out. Calls follow the shape of the dose curve; as a rule, active = well fitted activation curve with a large enough effect; inconclusive = small, poorly fitted or top-dose-only effect, or another doubt; inactive = no such curve, though single readings can be large or run the other way. The list shows a part of the results.
# Experiment: Primary qHTS for Identification of Small Molecule Activators of Huntingtin-Antisense Promoter Activity; also: nearly all actives have a fitted effect of over 55% in size
# Conditions: HEK293 HTT-AS promoter firefly luciferase reporter (activity 0% = vehicle and -100% = no light), 24 h; series mostly up to 57.5 µM; activity change, positive = activation: at the top concentration
# Outline: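 Firefly luciferase signal from promoter-reporter HEK293 cells was scaled between vehicle (0%) and zero RLU (-100%). Compounds were tested at final concentrations of up to 57.5 uM over 24 h at 37 degrees C. PTC124 at 50 uM final served as control inhibitor.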
row,SMILES,"activity change, positive = activation"
1,COc1ccc(CNc2oc(-c3ccc(COc4ccc(Cl)cc4)o3)nc2C#N)cc1,inactive: -60.4%
2,CCOC(=O)c1cccc(NC(=O)c2cc(S(=O)(=O)N3CCCCCC3)cn2C)c1,inactive: -37.5%
3,CCOC(=O)CSc1nc2sc3c(c2c(=O)n1Cc1ccccc1)CCC(C(C)(C)C)C3 (stereo not given),inactive: 12.8%
4,COc1ccc(CNC(=O)c2c(Nc3ccc(OC)cc3OC)sc(C(=O)c3ccc(Cl)cc3)c2N)cc1,inactive: -19.2%
5,O=C(CN1C(=O)C2(CCCC2)NC[C@H]1c1cc(F)cc(F)c1)Nc1ccc2c(c1)C[C@@]1(C2)C(=O)Nc2ncccc21,inactive: -11.2%
6,CCN(CC)C(=O)CSc1nc2cc3c(cc2c(=O)n1CCCCCC(=O)NCCc1ccc(OC)c(OC)c1)OCO3,inactive: -18%
7,COc1ccc(CNC(=O)c2ccc3c(c2)N(Cc2ccccc2F)C(=O)c2ccccc2S3(=O)=O)cc1,inactive: -15.8%
8,CCOc1ccc(NC(=O)c2c(NCc3sccc3C)sc3c2CCCCC3)cc1,inactive: -15.2%
9,COCCNC(=O)CCc1c(C)nc2c(c(C)nn2-c2ccc(C)cc2)c1C,inactive: -12.1%
10,Cc1cc(F)ccc1NC(=O)CN(C)S(=O)(=O)c1ccc(C(=O)N2CCOCC2)s1,inactive: -6.78%
11,N#Cc1c(C(F)(F)F)cc(-c2cccs2)nc1SCC(=O)Nc1ccc(F)cc1,inactive: -23.1%
12,CCCN(CCC)c1nc(-c2ccccc2F)nc2ccccc12,inactive: -12.8%
13,O=C(CSc1nc2c([nH]c3ccccc32)c(=O)n1-c1ccc(F)cc1)NC1CCCCC1,inactive: -39.5%
14,CCc1ccccc1NC(=O)CSC1=Nc2ccccc2C2=NC(Cc3ccccc3)C(=O)N12 (stereo not given),inactive: -18.3%
15,O=C(COc1ccc([N+](=O)[O-])cc1)Nc1cccc2cccnc12,inactive: 1.79%
16,COc1ccc(OCc2ccc(-c3nc(C#N)c(N4CCN(c5cccc(Cl)c5)CC4)o3)o2)cc1,inactive: -7.34%
17,Cc1ccc(-n2nc(C)c3c(C(=O)NCc4ccc(F)cc4)cc(C)nc32)cc1,inactive: -13.6%
18,Cc1cccc(N2CC(C)Cn3c2nc2c3c(=O)n(CC(=O)O)c(=O)n2C)c1 (stereo not given),inactive: -4.83%
19,CCc1cccc(NC(=O)CCc2nc3cccnc3n2-c2ccccc2)c1,inactive: -9.55%
20,CSc1ccc(CCNC(=O)c2ccc(CS(=O)(=O)c3ccc(Br)cc3)o2)cc1,inactive: -32.5%
21,COCCNC(=O)c1cccc(Nc2nc3ccccc3n3nnnc23)c1,inactive: -9.19%
22,CCOc1cc(CNC(=O)c2ccc3c(c2)N(C)C(=O)C2CCCCN32)cc(OCC)c1OCC (stereo not given),inactive: -24%
23,O=C(Nc1ccc(F)cc1F)c1cc2c(=O)n3ccccc3nc2s1,inactive: 5.52%
24,CCOC(=O)N1CCc2c(sc(NCc3ccc(N(C)C)cc3)c2C(=O)Nc2ccc(OC)cc2)C1,inactive: -35.1%
25,CC1CCc2c(sc(NC(=O)c3ccc(Cl)cc3Cl)c2C#N)C1 (stereo not given),inactive: 0.732%
